Reference: the supplement of paper PMC3334620
Whole data set: some 33,000 sequences, median “E-score (-0.5 to 0.5)” near -0.032, cut for the highest 2% near 0.36. Some of the results follow.

Each sequence was assayed against T1, Sko1 (UniProt Q02100) (assay: PBM E-score (8-mer binding enrichment) (E-score (-0.5 to 0.5)); higher = stronger / more preferred TF binding; most listed sequences are background and not binding sites). Settings: protein concentration: 200 nM; construct: GST-full length.
T1 sequence: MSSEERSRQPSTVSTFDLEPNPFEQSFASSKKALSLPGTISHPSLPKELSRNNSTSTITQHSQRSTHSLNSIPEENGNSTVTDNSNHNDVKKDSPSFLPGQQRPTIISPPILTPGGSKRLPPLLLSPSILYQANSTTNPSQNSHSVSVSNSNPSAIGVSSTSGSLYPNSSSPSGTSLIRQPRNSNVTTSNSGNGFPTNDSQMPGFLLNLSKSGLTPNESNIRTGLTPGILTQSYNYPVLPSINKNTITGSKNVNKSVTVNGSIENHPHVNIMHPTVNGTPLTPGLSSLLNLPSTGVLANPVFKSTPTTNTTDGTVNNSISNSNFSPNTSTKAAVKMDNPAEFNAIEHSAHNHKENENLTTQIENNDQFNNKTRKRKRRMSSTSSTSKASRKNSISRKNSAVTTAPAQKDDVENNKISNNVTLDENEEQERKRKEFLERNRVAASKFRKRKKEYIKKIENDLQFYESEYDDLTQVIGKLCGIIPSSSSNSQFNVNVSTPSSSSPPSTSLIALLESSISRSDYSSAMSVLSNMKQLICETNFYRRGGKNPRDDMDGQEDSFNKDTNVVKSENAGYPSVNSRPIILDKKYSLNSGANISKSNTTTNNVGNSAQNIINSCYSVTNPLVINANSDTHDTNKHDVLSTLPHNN
How it was run: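 PURExpress in vitro transcription/translation supplied GST-tagged yeast transcription factors, either full-length or DNA-binding domain. Applied at about 100-200 nM to universal all-10-mer Agilent arrays double-stranded by primer extension, the bound protein was detected with fluorescent anti-GST. E-scores, modified Wilcoxon-Mann-Whitney statistics, were given by the Universal PBM Analysis Suite to ungapped eight-base words pooled with their reverse complements after masliner normalisation.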

Question: With TCAAGAGA as the sequence, how does the “PBM E-score” value read?
Answer: -0.0398

Question: For CCATCCAC, which “PBM E-score” value is on record?
Answer: -0.333

Question: TCATATCA was tested. Which “PBM E-score” value did it give?
Answer: 0.209

Question: Which “PBM E-score” value does the source give for ATTATCAA here?
Answer: 0.131

Question: For CCGCAACG, which “PBM E-score” value is on record?
Answer: 0.0186

Question: With AACTGATC as the sequence, how does the “PBM E-score” value read?
Answer: -0.013

Question: ATAGGGTG was tested. Which “PBM E-score” value did it give?
Answer: -0.229

Question: Which “PBM E-score” value does the source give for GTTGGATA here?
Answer: 0.11

Question: How did the “PBM E-score” value turn out when ACTATGAC was run?
Answer: 0.342

Question: For ATTTGTCG, which “PBM E-score” value is on record?
Answer: 0.0997

Question: Which “PBM E-score” value does the source give for ACGAACTG here?
Answer: 0.0529

Question: How did the “PBM E-score” value turn out when AAATTACG was run?
Answer: 0.439

Question: With AGGGATGC as the sequence, how does the “PBM E-score” value read?
Answer: -0.283

Question: For ACGTAAGT, which “PBM E-score” value is on record?
Answer: 0.465

Question: With AAGCCTTG as the sequence, how does the “PBM E-score” value read?
Answer: -0.054

Question: Which “PBM E-score” value does the source give for GCCTGGCC here?
Answer: -0.269

Question: ATACGATA was tested. Which “PBM E-score” value did it give?
Answer: 0.269

Question: For CCGGAGCC, which “PBM E-score” value is on record?
Answer: -0.349

Question: Which “PBM E-score” value does the source give for ACCTTGAA here?
Answer: -0.0691

Question: With CCTATCCA as the sequence, how does the “PBM E-score” value read?
Answer: -0.145

Question: Which “PBM E-score” value does the source give for GACTATGC here?
Answer: -0.0722

Question: TCACATCA was tested. Which “PBM E-score” value did it give?
Answer: 0.274

Question: With CCTCATGA as the sequence, how does the “PBM E-score” value read?
Answer: 0.154

Question: With ACCTAGTC as the sequence, how does the “PBM E-score” value read?
Answer: -0.18

Question: With AGGGCTAT as the sequence, how does the “PBM E-score” value read?
Answer: -0.13

Question: TACACGAA was tested. Which “PBM E-score” value did it give?
Answer: 0.251

Question: Which “PBM E-score” value does the source give for ATCCGTTG here?
Answer: -0.0186

Question: For GACCACCC, which “PBM E-score” value is on record?
Answer: -0.0617

Question: How did the “PBM E-score” value turn out when ATGGATGA was run?
Answer: 0.0327

Question: For CAAGAGGG, which “PBM E-score” value is on record?
Answer: -0.219

Question: Which “PBM E-score” value does the source give for CGGGAGAA here?
Answer: -0.258

Question: AGGAGTTA was tested. Which “PBM E-score” value did it give?
Answer: -0.0892

Question: With TACGGGAA as the sequence, how does the “PBM E-score” value read?
Answer: -0.167

Question: With AACGTATG as the sequence, how does the “PBM E-score” value read?
Answer: 0.431

Question: How did the “PBM E-score” value turn out when ACCACCCG was run?
Answer: -0.148

Question: Which “PBM E-score” value does the source give for AGTTTAAT here?
Answer: 0.168

Question: How did the “PBM E-score” value turn out when AATCTAAG was run?
Answer: 0.033

Question: For TCTTGGCA, which “PBM E-score” value is on record?
Answer: 0.124

Question: With AAACCGCT as the sequence, how does the “PBM E-score” value read?
Answer: -0.177

Question: How did the “PBM E-score” value turn out when CCTGAGCC was run?
Answer: -0.285

Question: How did the “PBM E-score” value turn out when ACATGGTC was run?
Answer: 0.00655

Question: Which “PBM E-score” value does the source give for CCAACATC here?
Answer: -0.131

Question: For ACACGTCT, which “PBM E-score” value is on record?
Answer: 0.292

Question: For AAACGAGC, which “PBM E-score” value is on record?
Answer: 0.133

Question: With CTACACCA as the sequence, how does the “PBM E-score” value read?
Answer: -0.00119

Question: Which “PBM E-score” value does the source give for ATTCACCA here?
Answer: 0.0304

Question: Which “PBM E-score” value does the source give for CTTGTACA here?
Answer: 0.0263

Question: CGTTCTGC was tested. Which “PBM E-score” value did it give?
Answer: 0.179

Question: For ACGTGTGG, which “PBM E-score” value is on record?
Answer: 0.395

Question: How did the “PBM E-score” value turn out when CTCGGCAC was run?
Answer: -0.274

Question: ACCAAGCC was tested. Which “PBM E-score” value did it give?
Answer: -0.132

Question: For AGTTGTGG, which “PBM E-score” value is on record?
Answer: 0.0954

Question: How did the “PBM E-score” value turn out when AAGGCTAC was run?
Answer: -0.0831

Question: With CCCAGAAA as the sequence, how does the “PBM E-score” value read?
Answer: -0.0901

Question: With TAGCCGGA as the sequence, how does the “PBM E-score” value read?
Answer: -0.118

Question: For GGGCAAAC, which “PBM E-score” value is on record?
Answer: -0.0889

Question: With AACGACAG as the sequence, how does the “PBM E-score” value read?
Answer: 0.0973

Question: GACGCCAA was tested. Which “PBM E-score” value did it give?
Answer: 0.132

Question: Which “PBM E-score” value does the source give for GAAGAGTA here?
Answer: -0.0306

Question: With AAATAGAG as the sequence, how does the “PBM E-score” value read?
Answer: 0.101

Question: With CCAAGCTA as the sequence, how does the “PBM E-score” value read?
Answer: -0.144

Question: For CGGGAACA, which “PBM E-score” value is on record?
Answer: 0.0556

Question: For CCGATTTA, which “PBM E-score” value is on record?
Answer: -0.0925

Question: ACCTAAGA was tested. Which “PBM E-score” value did it give?
Answer: 0.0726

Question: AGGAATAA was tested. Which “PBM E-score” value did it give?
Answer: 0.0425

Question: Which “PBM E-score” value does the source give for ACAAATCT here?
Answer: 0.116

Question: With ATACCATG as the sequence, how does the “PBM E-score” value read?
Answer: 0.127

Question: How did the “PBM E-score” value turn out when ACCCTGCC was run?
Answer: -0.235

Question: How did the “PBM E-score” value turn out when GGCTCGCA was run?
Answer: -0.107

Question: With GCACAATA as the sequence, how does the “PBM E-score” value read?
Answer: -0.0186

Question: How did the “PBM E-score” value turn out when ATTGGAAG was run?
Answer: 0.0298

Question: Which “PBM E-score” value does the source give for GATGCGAA here?
Answer: 0.0752

Question: For ATGTATCC, which “PBM E-score” value is on record?
Answer: 0.00689

Question: For TGTCGAAA, which “PBM E-score” value is on record?
Answer: 0.0525

Question: Which “PBM E-score” value does the source give for CGACTTAA here?
Answer: 0.0456

Question: For CGAACTGC, which “PBM E-score” value is on record?
Answer: -0.0625

Question: For CTCCTGCC, which “PBM E-score” value is on record?
Answer: -0.232

Question: With GGCAATAA as the sequence, how does the “PBM E-score” value read?
Answer: -0.102

Question: For AGAAACTG, which “PBM E-score” value is on record?
Answer: 0.0191

Question: How did the “PBM E-score” value turn out when AGTAAGGG was run?
Answer: -0.17

Question: With ATCTAGTG as the sequence, how does the “PBM E-score” value read?
Answer: -0.0782

Question: For CAGATTGA, which “PBM E-score” value is on record?
Answer: 0.12

Question: How did the “PBM E-score” value turn out when CAATAGTG was run?
Answer: -0.0556

Question: For GGTGGAGA, which “PBM E-score” value is on record?
Answer: -0.302

Question: Which “PBM E-score” value does the source give for GGAAAGCA here?
Answer: -0.0484

Question: Which “PBM E-score” value does the source give for CTGGTGAC here?
Answer: 0.0832

Question: With GATCAAGC as the sequence, how does the “PBM E-score” value read?
Answer: 0.133

Question: AGGGGTGG was tested. Which “PBM E-score” value did it give?
Answer: -0.198

Question: Which “PBM E-score” value does the source give for CAAGACTG here?
Answer: 0.0134

Question: GAGCACCA was tested. Which “PBM E-score” value did it give?
Answer: -0.276

Question: How did the “PBM E-score” value turn out when CACACGTG was run?
Answer: 0.386

Question: For CCGCCAAG, which “PBM E-score” value is on record?
Answer: -0.326

Question: For CATCCGTA, which “PBM E-score” value is on record?
Answer: 0.151

Question: CGCCTGGC was tested. Which “PBM E-score” value did it give?
Answer: -0.237
